The antibiotic and cytotoxicity screens of Wong et al. (2023)
Some of the results follow.

Tested on: HSkMC (human skeletal muscle cells)
Assay: cytotoxicity call (relative viability < 0.9)
Conditions: 10 µM

SMILES	cytotoxicity call
CS(=O)(=O)N1C[C@H]2C[C@@H](F)[C@@H](O)[C@@H]2C1	inactive
C[C@@H]1CCCCO[C@H](CN(C)Cc2ccccc2)[C@H](C)CN([C@H](C)CO)C(=O)c2cc(NC(=O)C3CCCCC3)ccc2O1	inactive
CC(=O)O[C@@H](C)C[N+](C)(C)C	inactive
CC(C)=CCOc1cc2oc(=O)ccc2cc1O	inactive
Cc1noc(C)c1NC(=O)N(C)C[C@@H]1OCCCC[C@H](C)Oc2ccc(NC(=O)C3CCCCC3)cc2C(=O)N([C@H](C)CO)C[C@@H]1C	inactive
COc1ccc([Si](C)(C)[C@H]2[C@H](CC(=O)N3Cc4ccccc4C[C@H]3CO)O[C@@]3(C(=O)N(Cc4ccc(N5CCOC5=O)cc4)c4ccccc43)[C@@H]2C)cc1	inactive
C[C@@H]1CN([C@@H](C)CO)C(=O)c2cc(NC(=O)Nc3cccc4ccccc34)ccc2O[C@@H]1CN(C)Cc1ccc(C(=O)O)cc1	inactive
C=CCN1C(=O)[C@]2(O[C@H](CCO)[C@@H]([Si](C)(C)c3ccc(OC)cc3)[C@@H]2C)c2cc(N3C(=O)c4cccc5cccc3c45)ccc21	active
CN1C(=O)c2cc(NS(=O)(=O)c3ccc(F)cc3)ccc2OC[C@H]2O[C@H](CC(=O)NCC(F)(F)F)CC[C@H]21	inactive
CC1(C)S[C@@H]2[C@H](NC(=O)C3(N)CCCCC3)C(=O)N2[C@H]1C(=O)O	inactive
CN1C(=O)c2cc(NC(=O)c3ccc(F)cc3)ccc2OC[C@@H]2O[C@H](CC(=O)N3CCOCC3)CC[C@H]21	inactive
CCOC[C@@H](O)CN	inactive

Tested on: HepG2
Assay: cytotoxicity call (relative viability < 0.9)
Conditions: 10 µM

SMILES	cytotoxicity call
C[C@H](CO)N1C[C@H](C)[C@@H](CN(C)Cc2ccc(-c3ccccc3)cc2)Oc2ccc(NC(=O)NC3CCCCC3)cc2CC1=O	inactive
C[C@H]1CCCCO[C@H](CN(C)S(=O)(=O)c2cn(C)cn2)[C@@H](C)CN([C@@H](C)CO)C(=O)c2cc(NS(=O)(=O)c3cn(C)cn3)ccc2O1	inactive
C[C@@H]1CCCCO[C@@H](CN(C)C(=O)Nc2ccc3c(c2)OCO3)[C@@H](C)CN([C@H](C)CO)C(=O)c2cc(NC(=O)CCCCCC(=O)Nc3ccccc3N)ccc2O1	inactive
COc1cccc(C#Cc2cnc3c(c2)C(=O)N([C@H](C)CO)C[C@H](C)[C@H](CN(C)C(=O)C2CCC2)O3)c1	inactive
C[C@H](CO)N1C[C@H](C)[C@@H](CN(C)C(=O)C2CCCCC2)Oc2ncc(C#CC3(O)CCCC3)cc2C1=O	inactive
COc1ccccc1-c1cccc(-c2nc(C(=O)NCc3ccncc3)cc3c2[C@@H](CCO)N([S@](=O)C(C)(C)C)C3)c1	inactive
C[C@@H]1CN([C@@H](C)CO)C(=O)CCCn2cc(nn2)CO[C@@H]1CN(C)C(=O)Nc1ccc2c(c1)OCO2	inactive
C[C@@H]1CCCCO[C@@H](CN(C)Cc2ccc(Cl)c(Cl)c2)[C@@H](C)CN([C@@H](C)CO)C(=O)c2cc(NS(=O)(=O)c3cn(C)cn3)ccc2O1	inactive
C[C@@H]1CN([C@@H](C)CO)C(=O)Cc2cc(NC(=O)Cn3cnnn3)ccc2O[C@@H]1CN(C)CC1CCCCC1	inactive
COc1ccc(CN(C)C[C@H]2Oc3c(NC(=O)Nc4ccc(C(F)(F)F)cc4)cccc3C(=O)N([C@@H](C)CO)C[C@@H]2C)cc1	inactive
C[C@H](CO)N1C[C@H](C)[C@@H](CN(C)C(=O)Nc2ccc3c(c2)OCO3)Oc2c(NC(=O)c3ccncc3)cccc2C1=O	inactive
COc1ccc(NC(=O)N(C)C[C@@H]2OCCCC[C@H](C)Oc3ccc(NC(=O)Nc4ccc(C(F)(F)F)cc4)cc3C(=O)N([C@H](C)CO)C[C@@H]2C)cc1	inactive
CCNC(=O)C[C@H]1CC[C@@H](NC(=O)C2CC2)[C@H](CO)O1	inactive
COc1ccc(S(=O)(=O)N(C)C[C@@H]2Oc3c(NC(=O)C4CC4)cccc3C(=O)N([C@H](C)CO)C[C@@H]2C)cc1	inactive
Cc1noc(C)c1NC(=O)N(C)C[C@@H]1OCCCC[C@H](C)Oc2ccc(NC(=O)Nc3ccccc3)cc2C(=O)N([C@@H](C)CO)C[C@@H]1C	inactive
C[C@H](CO)N1C[C@H](C)[C@H](CN(C)S(=O)(=O)c2ccc(-n3cccn3)cc2)OCc2cn(nn2)CCCC1=O	inactive
C[C@H]1CCCCO[C@@H](CN(C)S(=O)(=O)c2ccc(F)cc2)[C@@H](C)CN([C@@H](C)CO)C(=O)c2cc(NS(=O)(=O)c3ccc(Cl)cc3)ccc2O1	inactive
